{
  "source": "paper PMC12136788",
  "binders": {"B1": {"name": "chr7:34932688:34932689:-_ENSMUSG00000052997_ENSMUST00000102746|mus_hu|motif|central (ssRNA)", "RNA": "GGGAGUUCUACAGUCCGACGAUCAAGAAGCUUCUUUCUUGGGUUUGGUUGUUUAUUCAAAAAAAUUGUUCUGCACUGGUCGGUUUUUCCUGAUAAAAUCUUCAAUCCUUCCAAUACUAUCAACCCAGCAAUUACUGCAUUAGUCAACAGAGGAUUGAGCAUCA"}, "B2": {"name": "37396510_37396630_546_CDS_ENSG00000082068_ENST00000265107|human|control|control (ssRNA)", "RNA": "GGGAGUUCUACAGUCCGACGAUCUUCUUCUUCAUUAAGAGGUGGAGGUAAAGGACCGAGGAUAUCUUCCUCCAUAAAAUUAACUGGUUUUCCUACCAUUUUAGGGGGUAAAGGAGGGCCAAUUAACUCAUCAUCAGAAGAGUCCAACAGAGGAUUGAGCAUCA"}, "B3": {"name": "chr4:97781865:97781866:+_ENSMUSG00000028565_ENSMUST00000075448|mus_hu|FALSE|FALSE (ssRNA)", "RNA": "GGGAGUUCUACAGUCCGACGAUCAAAAGCAAAAACACUGGCAACUGUUGGUGUUUCUUUUUUCCUGCUUGAUCACAACUGAAUAGUUUCCUGCUGCUUUCUGGACAAUGAAACAUGAACAAAAAUGUAACUUCGUGUAUUUAACAACAGAGGAUUGAGCAUCA"}, "B4": {"name": "37025648_37030961_747_CDS_ENSMUSG00000040565_ENSMUST00000099494|mouse|control|control (ssRNA)", "RNA": "GGGAGUUCUACAGUCCGACGAUCUUCUUCAGUACUCAUUCCAAUUGCUUCUCCCAUAUUAAGUCCAAGUUUCUUCUGUAAUAAUUUCCGUUGGCGUGCUAUCCUCUCUUUAGGAUCCACUUCACCUGAUUUUUCAUCUUGGACCAACAGAGGAUUGAGCAUCA"}, "B5": {"name": "47153109_47156016_533_CDS_ENSG00000197380_ENST00000391916|human|control|control (ssRNA)", "RNA": "GGGAGUUCUACAGUCCGACGAUCAGCGCUGGGACUGGCGUCUCCUAGGGACUUGGGCCUCUCACUGGCAUAGAUGCCCCGGGGCUCAGAGGGACCCAGGCGACCAUAGGAGCUGGAUCCAGAGAAGCCACUGUCCCCACAGAACAACAGAGGAUUGAGCAUCA"}, "B6": {"name": "113923534_113924362_1485_CDS_ENSG00000119927_ENST00000348367|human|control|control (ssRNA)", "RNA": "GGGAGUUCUACAGUCCGACGAUCAAUGGACGUGUCUCUACCUUCAUCAGCAGCAUCACUGGGUCUUGAAGGAAGUAUAGCUGGUAACAACGCUUGCUCCAGGGAAAGUAGAGCAGACACCGGUUUCUGACUUUGGCUUUCUAACAACAGAGGAUUGAGCAUCA"}, "B7": {"name": "chr4:44140560:44140561:-_ENSMUSG00000035696_ENSMUST00000045793|mus_hu|FALSE|FALSE (ssRNA)", "RNA": "GGGAGUUCUACAGUCCGACGAUCUAGAAGUAUUUCUGAUGCACUGACAACCCUAGGGGCAAACACAGUAUGCAAAACCCUACUUGUAGGACUAGAUAGAGGCAACAAUGUCUCGCAAAGGGCAAAAUUGUGCUUCUGUGAAUUCAACAGAGGAUUGAGCAUCA"}, "B8": {"name": "95906523_95907620_660_CDS_ENSMUSG00000006058_ENSMUST00000006217|mouse|control|control (ssRNA)", "RNA": "GGGAGUUCUACAGUCCGACGAUCUUCACUGACAGUCACAUACCCGUUUUUCUCGGCCAGCUGCAGCACAACAGUGUGAUCCAUAUUGAGCUCAGCGGGAACAGACUGGAUGAGGUAAGUGCCUCCCACAGGGAUGAUGCCGAACAACAGAGGAUUGAGCAUCA"}, "B9": {"name": "42866607_42871225_373_CDS_ENSG00000023516_ENST00000025301|human|control|control (ssRNA)", "RNA": "GGGAGUUCUACAGUCCGACGAUCAUUCAGAAUAUCUGGAAGUUCCAAAGAAACUGCAGCUAAAUCCUGUAUAUGAGCAGCAUCUGUCUCUUCAUUAAAACCCAGAAAUGUGACCUCAGUUAAAUUGGCAUGCUCAUCCUGCUGCAACAGAGGAUUGAGCAUCA"}, "B10": {"name": "chr2:65331917:65331918:-_ENSG00000138069_ENST00000409751|hu_hu|FALSE|FALSE (ssRNA)", "RNA": "GGGAGUUCUACAGUCCGACGAUCAUAACUGGAGGUGAUUGUUCGAAAUCUUUCCUGGCCUGCUGUGUCCCAUGCAAACCUAAGAAGAAGGCAAGACUUUCCAACCCCUGAGUCGCCAAUCAGAAGUAACUUGAAUAAAUAAUCCAACAGAGGAUUGAGCAUCA"}, "B11": {"name": "chr4:144460044:144460045:+_ENSG00000153147_ENST00000283131|hu_mus|hu_hu_hu_mus_False|8_98 (ssRNA)", "RNA": "GGGAGUUCUACAGUCCGACGAUCACGGUCCAUAGCCUGAAGAUCUACUUGCGGAUUCCAAUCUGAGUCAUAUAAAAUGACUACAUCAGCAGUUGCAAGAUUGAUGCCCAGACCACCAGCACGUGUGCUUAACAUGAAUACAAACAACAGAGGAUUGAGCAUCA"}, "B12": {"name": "chr5:64741823:64741824:+_ENSMUSG00000029174_ENSMUST00000119756|mus_hu|motif|central (ssRNA)", "RNA": "GGGAGUUCUACAGUCCGACGAUCGAAAUAUCUCAGACCCCACAACUGCAGCUCACAUGCUAGCAAUACCUGGUAGGGUCGGAAAGGUGUCAGCUGUCCCAUAAAGCAUUUACCUACUAUGACUUUGAUCAACUGUACUUAUGGCAACAGAGGAUUGAGCAUCA"}, "B13": {"name": "chr6:47494509:47494510:-_ENSMUSG00000029687_ENSMUST00000081721|mus_hu|motif|central (ssRNA)", "RNA": "GGGAGUUCUACAGUCCGACGAUCCCCAAUUAACCUAGCAAUGGCACAGAAAUUGUCAUAGUAAGUGCCAAUGAGGACUCGGAACAUUGAGGCUUCAGCACCACUCCACUCCACAUUCUCAGGAGGUUCAAUAUUUGGCUUCAUCAACAGAGGAUUGAGCAUCA"}, "B14": {"name": "chr7:151048522:151048523:+_ENSG00000013374_ENST00000566856|hu_mus|hu_hu_hu_mus_True|58_108 (ssRNA)", "RNA": "GGGAGUUCUACAGUCCGACGAUCCUGCUUCUUAUUUAUUACGAUCUUGAUGUAAUUUUCUUGAAAUCCGAAAGUUUCAGCUAUUUUACACCUCAGGUCUCUACCAGUGACAUGCAAGCGGGUCUCCAACAAGCUUUUCUUAUCCAACAGAGGAUUGAGCAUCA"}, "B15": {"name": "chr11:119138191:119138192:+_ENSMUSG00000025579_ENSMUST00000026666|mus_mus|FALSE|FALSE (ssRNA)", "RNA": "GGGAGUUCUACAGUCCGACGAUCCCCAGUCUCGUUGGUGAUGAACACGCCCCUCCGCAGACCCUCGUCGUAGGGCCUGUAACUCCCAGCAGGGCCUGCGCUGCUGAUGGCAGGGUCCACGAUCAUCAUGUAGCGCCGGCCAUCCAACAGAGGAUUGAGCAUCA"}, "B16": {"name": "chr4:148551591:148551592:-_ENSMUSG00000063077_ENSMUST00000060537|mus_hu|mus_mus_mus_hu_False|18_108 (ssRNA)", "RNA": "GGGAGUUCUACAGUCCGACGAUCACCUUACAAAAUUAAAUAUCCCUGUAAAUUAGACAAUAAGCAGCAGGCAACAAAGUCUUUGCUUUGGAAUAUGUGCCAGGAAAAGUCAUCUUGUAGACCCCAAUCAAGAGACAGUUCACACAACAGAGGAUUGAGCAUCA"}, "B17": {"name": "chr1:163117127:163117128:-_ENSG00000143248_ENST00000313961|hu_mus|hu_hu_hu_mus_False|58_58 (ssRNA)", "RNA": "GGGAGUUCUACAGUCCGACGAUCUGCUACAAAGGAUGUAACUCAACUCACAGGGCAACUUUUGGAAGCCUGACCAGAUUACUACUUGAUUAGCUCCUUAUAAAAUUCAGAGCGCACAAAGCGGGGCAGAGAAUCCUUCUCCAUCAACAGAGGAUUGAGCAUCA"}, "B18": {"name": "chr2:179515052:179515053:+_ENSMUSG00000000305_ENSMUST00000000314|mus_hu|mus_mus_mus_hu_False|58_98 (ssRNA)", "RNA": "GGGAGUUCUACAGUCCGACGAUCGCUGUCCCAUGCAGUGACGGUAAACGCCACCUGCUCGGAGGGGACCUGCAGCUCCCUAGUGGCGAAGACUGUCCCAUCUGCCCCAACUUUGAAGUCCAUGCUGUUGGUCUCAUAUUGUGUCAACAGAGGAUUGAGCAUCA"}, "B19": {"name": "chr8:24049560:24049561:+_ENSMUSG00000031540_ENSMUST00000044331|mus_hu|FALSE|FALSE (ssRNA)", "RNA": "GGGAGUUCUACAGUCCGACGAUCACUGCUGACCGAACGGACUGACUGGCUGGGGUGAGACUGAACGGAGGAGAUAGGGCUAUUAUGUUCUGACGCAUGACAGUCUUCAACCAUGGACAUCUGAGGGUCCUCGUCAGCCUGGGUCAACAGAGGAUUGAGCAUCA"}, "B20": {"name": "chr2:198351390:198351391:-_ENSG00000144381_ENST00000345042|hu_hu|hu_hu_hu_mus_False|8_78 (ssRNA)", "RNA": "GGGAGUUCUACAGUCCGACGAUCUCAUUCCCACCCUCCACAGAAAGGCUGCUUCUGUUCUCAUCUGUGGUGACACAGCGCUACAGUCCUGAUGCUCACAGAACAGUAGAGAUGCCUCAGUGAUUUAUUAAGUUGAAAGGACACCAACAGAGGAUUGAGCAUCA"}, "B21": {"name": "chr20:9438074:9438075:+_ENSG00000101333_ENST00000334005|hu_mus|FALSE|FALSE (ssRNA)", "RNA": "GGGAGUUCUACAGUCCGACGAUCUUUGUGAUCCGUUGUCAGGGUCUGAAUUUUAAUUUCUGUUUCUUUUUUUAUUUCAAGACAAUUACUUCCCCCCUUCUUCUUCAUCGCCUUCUCUAGGAUUUUCUCAUGAGUCGACUUCUCCAACAGAGGAUUGAGCAUCA"}, "B22": {"name": "chr7:75932113:75932114:+_ENSG00000106211_ENST00000248553|hu_hu|hu_hu_hu_mus_False|1_28 (ssRNA)", "RNA": "GGGAGUUCUACAGUCCGACGAUCCUGCGACCACUCAUCGGGCAACCGGGGCACCCCGAAAGCUUGAUCGAAGAGGCGGCUGUGUGCAGGGUACCAGUCCCGGAAUGCCCAGCUGGGCGGGCUCCGCAGCAGCGAGAGGACGCGCAACAGAGGAUUGAGCAUCA"}},
  "note": "Some of the results follow.",
  "data": [
    {"molecular_target": "T1, UNK ZnF1-3 (human, UniProt Q9C0B0 31-174)", "T1 sequence": "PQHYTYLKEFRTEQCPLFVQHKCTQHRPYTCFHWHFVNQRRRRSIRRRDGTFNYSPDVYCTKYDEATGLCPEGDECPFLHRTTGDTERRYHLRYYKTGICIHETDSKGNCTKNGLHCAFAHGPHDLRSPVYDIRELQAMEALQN", "assay": "nsRBNS (natural sequence RNA bind-n-seq); RBNS binding buffer (assumed for nsRBNS): 25 mM Tris pH 7.5, 150 mM KCl, 3 mM MgCl2, 0.01% Triton X-100, 500 ug/ml BSA, 20 U/ml SUPERase-In, 4 C; UNK is unkempt and MSI1 is Musashi-1; names of the RNAs are library labels; protein concentration not given here; high values mean tight binding", "units": {"binding signal": "enrichment R"}, "values": [
      {"binder": "B1", "binding signal": 0.812},
      {"binder": "B2", "binding signal": 0.66},
      {"binder": "B3", "binding signal": 0.907},
      {"binder": "B4", "binding signal": 0.481},
      {"binder": "B5", "binding signal": 0.576},
      {"binder": "B6", "binding signal": 1.08},
      {"binder": "B7", "binding signal": 0.911},
      {"binder": "B8", "binding signal": 1.35},
      {"binder": "B9", "binding signal": 1.5},
      {"binder": "B10", "binding signal": 1.46},
      {"binder": "B11", "binding signal": 1.04},
      {"binder": "B12", "binding signal": 0.55},
      {"binder": "B13", "binding signal": 1.31},
      {"binder": "B14", "binding signal": 0.695},
      {"binder": "B15", "binding signal": 0.711},
      {"binder": "B16", "binding signal": 1.45},
      {"binder": "B17", "binding signal": 1.13},
      {"binder": "B18", "binding signal": 0.724},
      {"binder": "B19", "binding signal": 0.804},
      {"binder": "B20", "binding signal": 1.66},
      {"binder": "B21", "binding signal": 0.283},
      {"binder": "B22", "binding signal": 0.553}
    ]}
  ]
}
